# The list shows a part of the results.
# Columns and labels:
# Experiment in all cases: glycan array binding signal (z-score within array); higher = stronger binding
# Settings in all cases: glycan notation: IUPAC condensed, linker removed
# [1] = target: Gal(b1-4)GlcNAc(b1-3)Gal(b1-4)GlcNAc(b1-3)Gal(b1-4)GlcNAc(b1-2)Man(a1-3)[Gal(b1-4)GlcNAc(b1-3)Gal(b1-4)GlcNAc(b1-3)Gal(b1-4)GlcNAc(b1-2)Man(a1-6)]Man(b1-4)GlcNAc(b1-4)GlcNAc
# In short: (§1)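 The binding signal is a Z-score computed within each array and averaged over linkers. Arrays of the same protein sequence at different concentrations or buffers were also averaged together. Data originate from 3228 arrays in the Consortium for Functional Glycomics database, kept only where the protein sequence was available.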
# [2] = target: Gal(b1-4)GlcNAc(b1-3)Gal(b1-4)GlcNAc(b1-3)Gal(b1-4)GlcNAc(b1-2)Man(a1-3)[Gal(b1-4)GlcNAc(b1-3)Gal(b1-4)GlcNAc(b1-3)Gal(b1-4)GlcNAc(b1-2)Man(a1-6)]Man(b1-4)GlcNAc(b1-4)[Fuc(a1-6)]GlcNAc
# In short: as §1
# [3] = target: Gal(b1-4)GlcNAc(b1-3)Gal(b1-4)GlcNAc(b1-3)Gal(b1-4)GlcNAc(b1-2)[Gal(b1-4)GlcNAc(b1-3)Gal(b1-4)GlcNAc(b1-3)Gal(b1-4)GlcNAc(b1-6)]Man(a1-6)[Gal(b1-4)GlcNAc(b1-3)Gal(b1-4)GlcNAc(b1-3)Gal(b1-4)GlcNAc(b1-2)Man(a1-3)]Man(b1-4)GlcNAc(b1-4)[Fuc(a1-6)]GlcNAc
# In short: as §1
# [4] = target: Gal(b1-4)GlcNAc(b1-3)Gal(b1-4)GlcNAc(b1-3)Gal(b1-4)GlcNAc(b1-3)Gal(b1-4)GlcNAc(b1-2)Man(a1-3)[Gal(b1-4)GlcNAc(b1-3)Gal(b1-4)GlcNAc(b1-3)Gal(b1-4)GlcNAc(b1-3)Gal(b1-4)GlcNAc(b1-2)Man(a1-6)]Man(b1-4)GlcNAc(b1-4)GlcNAc
# In short: as §1
# [5] = target: Gal(b1-4)GlcNAc(b1-3)Gal(b1-4)GlcNAc(b1-3)Gal(b1-4)GlcNAc(b1-3)Gal(b1-4)GlcNAc(b1-2)Man(a1-3)[Gal(b1-4)GlcNAc(b1-3)Gal(b1-4)GlcNAc(b1-3)Gal(b1-4)GlcNAc(b1-3)Gal(b1-4)GlcNAc(b1-2)Man(a1-6)]Man(b1-4)GlcNAc(b1-4)[Fuc(a1-6)]GlcNAc
# In short: as §1
# [6] = target: Gal(b1-4)GlcNAc(b1-3)Gal(b1-4)GlcNAc(b1-3)Gal(b1-4)GlcNAc(b1-3)Gal(b1-4)GlcNAc(b1-2)[Gal(b1-4)GlcNAc(b1-3)Gal(b1-4)GlcNAc(b1-3)Gal(b1-4)GlcNAc(b1-3)Gal(b1-4)GlcNAc(b1-6)]Man(a1-6)[Gal(b1-4)GlcNAc(b1-3)Gal(b1-4)GlcNAc(b1-3)Gal(b1-4)GlcNAc(b1-3)Gal(b1-4)GlcNAc(b1-2)Man(a1-3)]Man(b1-4)GlcNAc(b1-4)[Fuc(a1-6)]GlcNAc
# In short: as §1
# [7] = target: Gal(b1-4)GlcNAc(b1-3)Gal(b1-4)GlcNAc(b1-3)Gal(b1-4)GlcNAc(b1-3)Gal(b1-4)GlcNAc(b1-3)Gal(b1-4)GlcNAc(b1-2)Man(a1-3)[Gal(b1-4)GlcNAc(b1-3)Gal(b1-4)GlcNAc(b1-3)Gal(b1-4)GlcNAc(b1-3)Gal(b1-4)GlcNAc(b1-3)Gal(b1-4)GlcNAc(b1-2)Man(a1-6)]Man(b1-4)GlcNAc(b1-4)GlcNAc
# In short: as §1
# [8] = target: Gal(b1-4)GlcNAc(b1-3)Gal(b1-4)GlcNAc(b1-3)Gal(b1-4)GlcNAc(b1-3)Gal(b1-4)GlcNAc(b1-3)Gal(b1-4)GlcNAc(b1-2)Man(a1-3)[Gal(b1-4)GlcNAc(b1-3)Gal(b1-4)GlcNAc(b1-3)Gal(b1-4)GlcNAc(b1-3)Gal(b1-4)GlcNAc(b1-3)Gal(b1-4)GlcNAc(b1-2)Man(a1-6)]Man(b1-4)GlcNAc(b1-4)[Fuc(a1-6)]GlcNAc
# In short: as §1
# [9] = target: Gal(b1-4)GlcNAc(b1-3)Gal(b1-4)GlcNAc(b1-3)Gal(b1-4)GlcNAc(b1-3)Gal(b1-4)GlcNAc(b1-3)Gal(b1-4)GlcNAc(b1-2)[Gal(b1-4)GlcNAc(b1-3)Gal(b1-4)GlcNAc(b1-3)Gal(b1-4)GlcNAc(b1-3)Gal(b1-4)GlcNAc(b1-3)Gal(b1-4)GlcNAc(b1-6)]Man(a1-6)[Gal(b1-4)GlcNAc(b1-3)Gal(b1-4)GlcNAc(b1-3)Gal(b1-4)GlcNAc(b1-3)Gal(b1-4)GlcNAc(b1-3)Gal(b1-4)GlcNAc(b1-2)Man(a1-3)]Man(b1-4)GlcNAc(b1-4)[Fuc(a1-6)]GlcNAc
# In short: as §1
# [10] = target: Gal(b1-4)GlcNAc(b1-3)Gal(b1-4)GlcNAc(b1-3)Gal(b1-4)GlcNAc(b1-3)Gal(b1-4)GlcNAc(b1-3)Gal(b1-4)GlcNAc(b1-3)Gal(b1-4)GlcNAc(b1-2)Man(a1-3)[Gal(b1-4)GlcNAc(b1-3)Gal(b1-4)GlcNAc(b1-3)Gal(b1-4)GlcNAc(b1-3)Gal(b1-4)GlcNAc(b1-3)Gal(b1-4)GlcNAc(b1-3)Gal(b1-4)GlcNAc(b1-2)Man(a1-6)]Man(b1-4)GlcNAc(b1-4)GlcNAc
# In short: as §1
# [11] = target: Gal(b1-4)GlcNAc(b1-3)Gal(b1-4)GlcNAc(b1-3)GalNAc
# In short: as §1
# [12] = target: Gal(b1-4)GlcNAc(b1-3)Gal(b1-4)GlcNAc(b1-3)[Gal(b1-4)GlcNAc(b1-3)Gal(b1-4)GlcNAc(b1-6)]GalNAc
# In short: as §1
# [13] = target: Gal(b1-4)GlcNAc(b1-3)Gal(b1-4)GlcNAc(b1-6)[Gal(b1-3)]GalNAc
# In short: as §1
# [14] = target: Gal(b1-4)GlcNAc(b1-3)Gal(b1-4)[Fuc(a1-3)]GlcNAc(b1-3)Gal(b1-4)[Fuc(a1-3)]GlcNAc
# In short: as §1
# [15] = target: Gal(b1-4)GlcNAc(b1-3)GalNAc
# In short: as §1
# [16] = target: Gal(b1-4)GlcNAc(b1-3)[Fuc(a1-3)GlcNAc(b1-6)]Gal(b1-4)Glc
# In short: as §1
# [17] = target: Gal(b1-4)GlcNAc(b1-3)[Gal(b1-4)GlcNAc(b1-6)]Gal(b1-4)GlcNAc
# In short: as §1
# [18] = target: Gal(b1-4)GlcNAc(b1-3)[GlcNAc(b1-6)]Gal(b1-4)GlcNAc
# In short: as §1
# [19] = target: Gal(b1-4)GlcNAc(b1-6)Gal(b1-4)GlcNAc
# In short: as §1
binder,measurement,setting,value
"FliC (Pseudomonas aeruginosa), P72151 (protein) MALTVNTNIASLNTQRNLNASSNDLNTSLQRLTTGYRINSAKDDAAGLQISNRLSNQISGLNVATRNANDGISLAQTAEGALQQSTNILQRIRDLALQSANGSNSDADRAALQKEVAAQQAELTRISDTTTFGGRKLLDGSFGTTSFQVGSNAYETIDISLQNASASAIGSYQVGSNGAGTVASVAGTATASGIASGTVNLVGGGQVKNIAIAAGDSAKAIAEKMDGAIPNLSARARTVFTADVSGVTGGSLNFDVTVGSNTVSLAGVTSTQDLADQLNSNSSKLGITASINDKGVLTITSATGENVKFGAQTGTATAGQVAVKVQGSDGKFEAAAKNVVAAGTAATTTIVTGYVQLNSPTAYSVSGTGTQASQVFGNASAAQKSSVASVDISTADGAQNAIAVVDNALAAIDAQRADLGAVQNRFKNTIDNLTNISENATNARSRIKDTDFAAETAALSKNQVLQQAGTAILAQANQLPQAVLSLLR",glycan array binding signal (z-score),[1],0.114
same,glycan array binding signal (z-score),[2],-0.104
same,glycan array binding signal (z-score),[3],0.438
same,glycan array binding signal (z-score),[4],-0.091
same,glycan array binding signal (z-score),[5],-0.062
same,glycan array binding signal (z-score),[6],0.871
same,glycan array binding signal (z-score),[7],0.011
same,glycan array binding signal (z-score),[8],-0.216
same,glycan array binding signal (z-score),[9],3.23
same,glycan array binding signal (z-score),[10],-0.11
same,glycan array binding signal (z-score),[11],-0.104
same,glycan array binding signal (z-score),[12],-0.087
same,glycan array binding signal (z-score),[13],-0.155
same,glycan array binding signal (z-score),[14],-0.157
same,glycan array binding signal (z-score),[15],-0.228
same,glycan array binding signal (z-score),[16],-0.228
same,glycan array binding signal (z-score),[17],-0.145
same,glycan array binding signal (z-score),[18],-0.262
same,glycan array binding signal (z-score),[19],-0.187
